# Data as given in the supplement of paper PMC3334620.
# Over roughly 33,000 sequences, “E-score (-0.5 to 0.5)” has its median near -0.036; the highest 2% begin near 0.37. The list shows a part of the results.
# Biological target: T1, Yer064c (UniProt P40041)
# T1 sequence: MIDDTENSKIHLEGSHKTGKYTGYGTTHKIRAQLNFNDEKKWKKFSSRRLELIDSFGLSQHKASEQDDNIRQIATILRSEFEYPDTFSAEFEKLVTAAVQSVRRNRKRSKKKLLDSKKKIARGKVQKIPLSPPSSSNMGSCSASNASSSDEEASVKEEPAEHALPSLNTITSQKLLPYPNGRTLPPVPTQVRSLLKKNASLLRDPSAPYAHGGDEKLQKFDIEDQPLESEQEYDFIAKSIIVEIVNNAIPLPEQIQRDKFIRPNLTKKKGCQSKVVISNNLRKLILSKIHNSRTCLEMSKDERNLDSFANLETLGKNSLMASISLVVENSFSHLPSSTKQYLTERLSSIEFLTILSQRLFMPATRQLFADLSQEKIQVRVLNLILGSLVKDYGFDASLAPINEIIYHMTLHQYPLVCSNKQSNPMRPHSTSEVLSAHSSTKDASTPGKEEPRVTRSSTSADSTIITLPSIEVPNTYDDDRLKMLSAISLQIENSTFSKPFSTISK
# Experiment: PBM E-score (8-mer binding enrichment) (E-score (-0.5 to 0.5)); higher = stronger / more preferred TF binding; most listed sequences are background and not binding sites
# Conditions: protein concentration: 200 nM; construct: GST-full length
# How it was run: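 The E-score, a modified Wilcoxon-Mann-Whitney statistic, was computed by the Universal PBM Analysis Suite for every ungapped eight-base word pooled with its reverse complement. Scans behind it were normalised with masliner after bound GST-tagged yeast transcription factors were detected with fluorescent anti-GST. The proteins, at about 100-200 nM, had been applied to universal all-10-mer Agilent arrays made double-stranded by primer extension.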
row,Sequence,PBM E-score
1,GCGGCAAC,-0.255
2,ACATGCGA,0.138
3,TCGTCAGA,-0.15
4,GGCGAGGA,-0.0544
5,GAGTTATA,0.147
6,AGGATAGG,-0.0969
7,CCCTTTTA,-0.0873
8,GCCATACC,-0.166
9,CGGACTAG,-0.00496
10,GGGCCGGA,-0.261
11,GGTGCAAA,-0.221
12,ACCAGACG,-0.0677
13,ATACCAGA,0.0591
14,GTTAAAGA,0.0949
15,AATCAGGC,0.306
16,CAGTAGCA,-0.0537
17,ACCCTCCT,-0.241
18,GATTGAGC,0.166
19,ACGTACGA,-0.184
20,ATGGCGAG,0.0883
21,CAGCCGTA,-0.114
22,AGTATGGA,-0.0074
23,CACGATGA,0.229
24,AGCCCGTG,-0.0747
25,ACGTGTCC,-0.113

row,Sequence,PBM E-score
1,TGCGGGAA,-0.0294
2,AGTTATCC,-0.033
3,CTAGCTGA,0.0232
4,AAGAGAAA,-0.126
5,AGTAAGAA,0.147
6,GCTCAACC,0.189
7,GAAATTGA,0.145
8,CGAAAGGA,-0.0257
9,AAAGCACG,-0.00773
10,CACCCCCA,-0.0361
11,GCATTCTA,-0.213
12,AAGACCTG,-0.22
13,AAAGCGAG,-0.0981
14,GCGTGGGA,-0.152
15,CCAAACAC,-0.11
16,AATACCAG,-0.0862
17,AACCGCTG,-0.189
18,AAATACCA,0.0501
19,GAAGCTAC,0.0449
20,TGTCCTAA,-0.0793
21,AACACAAC,0.0654
22,AAAGCAAT,0.0493
23,GGATGGCA,-0.133
24,GGCTTACA,-0.163
25,TACGTATA,0.0589

row,Sequence,PBM E-score
1,AAGGGACA,-0.225
2,AGAGTATC,0.0567
3,GGGGCGAA,-0.172
4,ACTGTGCG,-0.041
5,ACCTCCGA,0.108
6,ATTGTGTG,-0.0514
7,ATCTACCC,0.0473
8,CCATTACG,-0.038
9,GCCCTCCA,-0.293
10,ACCGGTGA,0.0651
11,CCCACACG,-0.134
12,AGGTTTTG,-0.243
13,CACCCCCG,-0.0753
14,ACAACTGA,0.0449
15,ACAACTCT,0.175
16,AGGTACCA,-0.0498
17,AGATCAAC,0.0956
18,ATGTTGCG,-0.0228
19,CATACTAG,0.0263
20,ATCTAAGC,-0.161
21,CCTGTATC,-0.112
22,ATCCAACA,-0.0352
23,GCCGAGTA,-0.242
24,AAGGGAAA,0.0643
25,CCGAAGCG,-0.12

row,Sequence,PBM E-score
1,ACGAGGCC,-0.172
2,ATGGTGTG,0.0548
3,GCTTTCAC,-0.252
4,ACTTCCAC,-0.114
5,AACGGGGG,-0.173
6,ACGCGAGT,0.222
7,AGGTCTAG,-0.06
8,AGATATAG,0.0428
9,GGTCGACA,-0.158
10,CATAGCAG,-0.0116
11,ACGAGCTC,-0.0386
12,GATACCAC,-0.113
13,TGTCTGAA,0.0776
14,GGGATACC,-0.278
15,ATAGTGTA,-0.0175
16,CACAAGAA,0.0656
17,AGTTTTCA,-0.118
18,AAGCTTCT,-0.333
19,AGGATGGG,0.119
20,AAGCAAAC,-0.213
21,CGTTGGAA,-0.123
22,AGTAACCG,-0.0492
23,CCTCCCCA,-0.118
24,AACATTGC,-0.17
25,CGTAGGGA,-0.131

row,Sequence,PBM E-score
1,AACTCAGC,0.022
2,CAATGAAA,0.104
3,ACCATTCC,-0.199
4,ACGGACAG,-0.228
5,CTTTGTAA,0.173
6,AAAGAACG,-0.161
7,AGCAAGGG,-0.125
8,GAGCCGGA,-0.159
9,AACGTACC,-0.083
10,CGCACATC,0.00301
11,CTCTCGTC,-0.254
12,AAGGAACA,0.0102
13,ATATCGTG,-0.0602
14,AATGGCCG,-0.169
15,GAAGTGCC,-0.336
16,GGGATTAC,0.0594
17,ATTCGGCC,-0.284
18,GTCATCCA,0.314
19,TATGCATA,-0.0476
20,CATTTAGA,0.0892
21,ACTTTCCA,0.0527
22,TGGTTAAA,0.311
23,CTCAGAGA,0.136
24,GTGAATAA,0.0323
25,CGTAAAAA,0.0562

row,Sequence,PBM E-score
1,AGACACAA,0.226
2,AGGACCCT,-0.21
3,ATGCTTTG,-0.00054
4,ATAATTAT,0.178
5,ACCTTTCT,-0.128
6,ATAAATGC,-0.12
7,CTTGTGCC,-0.148
8,CCTCTACC,-0.285
9,ACAGAGGG,-0.214
10,CCCCAGGC,-0.41
11,ATCAACCG,0.0982
12,ATTGTATC,0.00167
13,CTCACGGA,0.155
14,ACACTGCC,0.0668
15,ATTGGGAC,0.0416
16,CCTACACG,-0.0592
17,CCTTGCGC,-0.233
18,ACAGCAGA,-0.0985
19,CCAAAGGG,-0.035
20,GGACATCC,-0.414
21,TTAATGAA,0.0456
22,GCTTCCCA,-0.284
23,CTATCAAC,0.0323
24,ATATCGAT,0.0845
25,AAAGCTTC,-0.364

row,Sequence,PBM E-score
1,CTATGCTA,0.0143
2,ATGTTGAC,0.273
3,GAGTCTAC,0.285
4,CAGGGGGA,-0.263
5,GTTTCTAA,-0.00076
6,CAGTGCAA,0.106
7,GGCGTTTA,-0.0676
8,GTTTACTA,0.0459
9,CAAATTTG,0.13
10,TACACCCA,0.0364
11,ACCAGTCA,0.369
12,GTTGACGA,0.126
13,CACCATAC,-0.108
14,ATAAATTA,0.175
15,CCAATCCC,-0.277
16,CAACTCTC,-0.00777
17,CGTATGTC,0.036
18,ACTATCTC,0.212
19,AAGTTAAC,0.172
20,ATCGTTAA,0.0301
21,CTATTTTA,0.085
22,GTAATGTA,-0.0594
